# Reference: PubChem BioAssay (NCI)
#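 Exposure lasted 48 hours, with cells grown in 96-well plates and compounds tested at five concentrations. GI50: concentration for 50% inhibition of growth. Definition used: TGI = concentration required for complete inhibition of growth.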
# Tested on: NCI-H322M lung
# Experiment: NCI anticancer screen, dose series, 48 h
SMILES,GI50 [µM],TGI [µM]
O=C(c1ccc(OCCN2CCOCC2)cc1)C1[C@H](c2ccc(Cl)cc2)[C@@H](c2ccccc2)NC12C(=O)Nc1ccc(Cl)cc12 (some centres not stated),12.3,> 47.3
CNC(=O)c1cccc(N2CCc3c2ccc(NC(=O)Nc2ccc(N4CCN(C)CC4)c(C(F)(F)F)c2)c3F)c1,5.09,9.82
COc1ccc(-c2nc3ccc(-c4nnc(SCc5ccccc5)o4)cc3[nH]2)cc1,3.86,17
OC1CCC(Cn2c(C(F)(F)F)cc3c(Cl)ncnc32)CC1 (configuration not stated),3.84,13.6
CN1CCCN(Cc2ccc(C(=O)Nc3cccc(Nc4ccc5c(O)cccc5n4)c3)cc2C(F)(F)F)CC1,3.27,11.8
O=C(c1ccc(OCCN2CCOCC2)cc1)C1[C@H](c2ccc(Cl)cc2)[C@@H](c2ccccc2)NC12C(=O)Nc1ccc(Br)cc12 (some centres not stated),4.08,> 16.3
